# Measured values from the supplement of paper PMC11417369.
# ± gives the standard deviation of the averaged measurements. This is one part of the list.
# System: PfAP2-G AP2 domain (GST-tagged)
# Assay: gcPBM binding intensity (ln(normalized median fluorescence intensity)); higher = stronger DNA binding
# How it was run: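 In this array assay, P. falciparum DNA-binding domains with a GST tag, expressed in E. coli, were applied for 1 h to primer-extended double-stranded 36-bp intergenic genomic probes and negative controls on an Agilent 4 × 180k array. Bound protein was visualised with Alexa488 anti-GST antibody at 488 nm. Binding intensity is the highest Masliner-normalised natural-log median intensity across replicate spots of either probe orientation.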
row,Sequence,gcPBM binding intensity (ln)
1,TAAAAATATTTTCATTGTACATATATATAAATATAT [XGTACX_site1123],10.9 ± 0.61
2,TCACCTATTTTTAACTGTACTGAAATGATATATATA [XGTACX_site1366],11.3 ± 0.98
3,TAATGAAATTGTAGTAGTACCTTCTTATAAATAAAA [XGTACX_site6747],10.9 ± 0.6
4,ATTTGTTACGGACATGCATGCGAATCAGGGTATATA [TGCATGCA_site154],10.9 ± 0.72
5,CAAACCTATATACAAACATGCAATCCACATATTGGT [TGCATGCA_site756],9.99 ± 0.13
6,TATATTTGTATTGTTTGTACTTATATGAATTTATAT [XGTACX_site4228],11.2 ± 0.73
7,TATATTAGTGTTGACACACACAAAAAAAAAAAAAAA [CACACA_site1396],10.3 ± 0.61
8,ATGGTACATACATACACACACACAAAAAAAAAAAAA [CACACA_site1578],10.7 ± 0.79
9,GTTCAATTTTTAGGAAGTACAAAAAAAAAAAAGAAA [XGTACX_site7286],11.3 ± 0.75
10,TTTATTGACAATTTATGTACATATAATTGAAAAATA [XGTACX_site6634],11.4 ± 0.73
11,TTTGTGATATTATATTGTACCCTATATTTATTATAA [XGTACX_site4240],11.3 ± 0.87
12,GAATGGACGTTAGGGGGTACGTATAAAATTTATCAA [XGTACX_site683],11.7 ± 0.81
13,AATATATACAATATATGTACATATATATACACATAT [XGTACX_site4190],11.3 ± 0.73
14,CTTTTATTAAAATTCACACACATAAACTTTTATAAA [CACACA_site7027],10.1 ± 0.23
15,CTTATATATATATCATGTACTTATGTATTTAAGAAT [XGTACX_site3307],11.2 ± 0.69
16,ACAATAAAAATTTATGCATGTGAATTGAAAAAAAAA [TGCATGCA_site1037],9.925 ± 0.064
17,GGAATGTAGGGTTTTACCAAAATAAAAATAACCATA [XGTACX_negctrl_site492],10.1 ± 0.18
18,TATATATTTCGGTGTGCACACTTTTTATTTTTATCC [CACACA_site1726],10.6 ± 0.18
19,TATATATATATATGTACACACATATATACCTTTCAT [CACACA_site2679],11.4 ± 0.81
20,GTTATTGAAAAAATAGTGCAATATAACAAAGTAAAA,10.3 ± 0.2
21,AAATAAAACAAACACACACACACATACACAAAAAAA [CACACA_site3849],10.2 ± 0.45
22,ATAAAATACCTATAAACACACATATAAACAGACATA [CACACA_site7213],10 ± 0.18

row,Sequence,gcPBM binding intensity (ln)
1,AGGAAAATACCTTAATGTACATAGAAAAGTAACATT [XGTACX_site8011],10.9 ± 0.57
2,TTTTTTATTATCAAAACATGCATTTTTTAAATGGAA [TGCATGCA_site557],9.82 ± 0.16
3,TTGTACGCAAAAAAAAAAAAAAAAAAATTAAAATTT [TGCATGCA_negctrl_site586],11.5 ± 1.1
4,TTTTTCTCTTTAAGGTGTACAATAATACAGTAACCA [XGTACX_site300],11.4 ± 0.8
5,ATATTAGTAACACAGACACACAAAAAAAAAAAAAAA [CACACA_site2176],10 ± 0.54
6,CACTTAACACAAGAGTGTACACATATATATATATAT [XGTACX_site686],11.6 ± 0.92
7,ACAAATAAGTTTTGTAGTACTGTGTATATATATATA [XGTACX_site6901],11.3 ± 0.89
8,TTAAACCGTGGGAGCACACACACACCCCCACCCATA [CACACA_site331],10.8 ± 0.52
9,TTAAGAAGTTCTAAATGTACATACATAACCACGTTA [XGTACX_site7514],10.9 ± 0.48
10,ATAATATTTTCTTCTTATTGAATGCTTTAAATTTAC [CACACA_negctrl_site1273],9.94 ± 0.11
11,GGGAAATATTGAAACACACACGAACGCACGTATTTC [CACACA_site6258],10.3 ± 0.13
12,TATAAATATATATACACACACACATTAATACATATA [CACACA_site3488],10.2 ± 0.18
13,TAATGAAATATACAGAGTACATTCTGTATATAGGAT [XGTACX_site7691],11 ± 0.7
14,GCATAAGAAAATAATTGTACAATTTACATACATAAA [XGTACX_site8286],10.9 ± 0.54
15,TATATATGTATATATATAAATATATATATATATATA [TGCATGCA_negctrl_site605],9.69 ± 0.76
16,TACTCAAAAATTAATTAGCATAATATATATAAAAAT [GTGCAC_negctrl_site613],9.57 ± 0.11
17,ACCTATGTATATTATACACACTCCAAACTATTATTT [CACACA_site1817],10.13 ± 0.035
18,AAATAGTATATAATATGTACATACATAAAAATGTAT [XGTACX_site3524],11.2 ± 0.76
19,CAACATTTGAGACACACACACATACAAACAAACAAA [CACACA_site7538],10.4 ± 0.31
20,TATCCTATAAATAATACATGCATATATATATATATT [TGCATGCA_site638],9.88 ± 0.17
21,ATCAAAAAAAAAAAATTTTTTTTTTTGTTTGTTTCC [CACACA_negctrl_site1042],9.61 ± 0.14
22,AAAGGTAAGCAGAATAGTACAGAAGAAAAAATATTT [XGTACX_site2941],11.3 ± 0.88

row,Sequence,gcPBM binding intensity (ln)
1,TTTTGTTTGTTCGTGACTACATTATGTTGTAAATAC [CACACA_negctrl_site604],10.5 ± 0.28
2,CCCTCTTCTCTCATATCACACATGTCATCCTTATCC [CACACA_site5078],10.1 ± 0.15
3,AAGAAAATTAAATTAACACACATAAATATGTAAATA [CACACA_site6882],9.75 ± 0.071
4,CCAATAATATATAGAAGTACAGAAAAAAAAAAAAAA [XGTACX_site2049],11.5 ± 1.1
5,TATCGACATTTCATTTGTACATATATACATATATTT [XGTACX_site3346],10.6 ± 0.37
6,TATAAATATTTATAAACACACAAATATATATATTTA [CACACA_site27],9.92 ± 0.042
7,ATCAAAATGTTAAAGATACACACCTAACAAACACAA [CACACA_site955],10.2 ± 0.22
8,GCACGCTGTATGAATGCACACATTCATAGAATTGCT [CACACA_site8852],9.9 ± 0.11
9,TTATATATATAGAAGTGTACAAAATTTCCTAGACCT [XGTACX_site3900],11 ± 0.49
10,ATTTCACAGAAACACACACACAATATATTTCCTTTT [CACACA_site3904],10.1 ± 0.18
11,CCTTGAACCCCACTAACACACACACCCACGCTCAGA [CACACA_site8976],10.3 ± 0.33
12,TTTCATAAATAAATATGTACATAATTAATAATAAAT [XGTACX_site5882],11.3 ± 0.81
13,GAAAAATGAAGAGAACAAAATTTTATGATATATATA [GTGCAC_negctrl_site231],9.71 ± 0.13
14,TATACATAGATATATACACACATATATTTATATACA [CACACA_site6328],9.77
15,ATTACAAAAAAAAAAAAAAAAAAAAAAAAAAAAAAA [CACACA_negctrl_site448],9.76 ± 0.27
16,ATATGTATATATATTTGTACGTAAAATGAAATCTAA [XGTACX_site213],11.6 ± 0.86
17,TTAAAAATGAACATATGTACATATATATATATATAT [XGTACX_site7923],11.2 ± 0.55
18,TTATCATTTTAAATCACACACATATATATATATATA [CACACA_site2849],10.1 ± 0.56
19,TAACAAAACCTTATATGTACACACATATACATCACA [XGTACX_site6772],11.2 ± 0.63
20,TACCTTTTATTAATGTGTACCTAAAATATAATACTT [XGTACX_site192],11.3 ± 0.64
21,AAAAAGGTTATTGGTACACACATATGTATTTATATA [CACACA_site4464],11.2 ± 0.74
22,ACTACAAGGCAATACAGTACATATAAATGTCATAAT [XGTACX_site8468],10.8 ± 0.51

row,Sequence,gcPBM binding intensity (ln)
1,AAAAGAATTACTTTCACACATATATATCTGTAAATA [CACACA_site5798],9.65 ± 0.16
2,TACATATTTATATACACACACACCCTAAAAATATAT [CACACA_site6861],10.2 ± 0.17
3,AATAATGAAGCTTATGCACACGTTCATTATTTATAT [CACACA_site5736],10
4,ATAATTTTTTTTTTTTTTTTTTGAAAGTAGCATATG [CACACA_negctrl_site732],9.74 ± 0.14
5,TATTTTATGTAAATTGGTACACATATGTCAGTAAAA [XGTACX_site7111],11.2 ± 0.79
6,GATGCTAAAATTTATACACACAAAAAAAAAAAATTC [CACACA_site3284],10.1 ± 0.23
7,AAAAAAAAAAAATATACACACACACCGACACATAAA [CACACA_site9270],10.14 ± 0.021
8,TTTTGAATATTTGGTCGTACGTAAAAATAGATAATT [XGTACX_site5755],11.5 ± 0.98
9,TTTCATATTTTGTCCTGTTTTTTTTTTTTTTTTCTT [CACACA_negctrl_site993],10.2 ± 0.099
10,TTGAATGAAAAAATTTGTACTCATATAAATAATTTA [XGTACX_site4628],11.1 ± 0.79
11,AAAATATAAAAAGTCACACATATATATATTTATTTA [CACACA_site4872],9.7 ± 0.028
12,AGGAGAAAAGATAAAGACTTCAAGAAAAAAAAATAA [TGCATGCA_negctrl_site258],9.67 ± 0.028
13,CAATAATTTTTTGTGGGTACAAATAATTTTTTAAAT [XGTACX_site2407],11.2 ± 0.88
14,TTTATTATAATATGTTGTACAAGACGTTTCAGTATA [XGTACX_site4486],11.2 ± 0.69
15,AAATTATCTTAATAGGATGTTCAAGGAGAAAGATGA [CACACA_negctrl_site1032],9.905 ± 0.049
16,TAAATTAATACCTATGCACACATTTTTTTTTTTAAA [CACACA_site1238],10.01 ± 0.057
17,AAACCCTATTCAATGCAATAATTTTATAATTTTTTT [TGCATGCA_negctrl_site434],9.46 ± 0.31
18,TTTTTTTTAAATATCACACACATATAATATATTCTA [CACACA_site3668],9.88 ± 0.15
19,CTTAAATTTTTAAATACACACATACACCCATACACA [CACACA_site4461],10.7 ± 0.51
20,TAGCGGCGGTATCATGCACACGTATATATTGTAACA [CACACA_site8453],10.15 ± 0.099
21,ATAGTTTTATATAAATGTACAAATGATTTCAAATAG [XGTACX_site8236],10.7 ± 0.45
22,AACATGTATATATTATGTACATATGTTAAAATGATA [XGTACX_site6217],11.1 ± 0.59
